Source: patent US20210046154A1 (ONCOIMMUNE, published 2021)

Biological target: T1, Siglec-10Fc (human, UniProt Q96LC7 17-546)
T1 construct: Named only as Siglec-10Fc; not shown: Fc part of Siglec-10Fc
T1 sequence (looked up): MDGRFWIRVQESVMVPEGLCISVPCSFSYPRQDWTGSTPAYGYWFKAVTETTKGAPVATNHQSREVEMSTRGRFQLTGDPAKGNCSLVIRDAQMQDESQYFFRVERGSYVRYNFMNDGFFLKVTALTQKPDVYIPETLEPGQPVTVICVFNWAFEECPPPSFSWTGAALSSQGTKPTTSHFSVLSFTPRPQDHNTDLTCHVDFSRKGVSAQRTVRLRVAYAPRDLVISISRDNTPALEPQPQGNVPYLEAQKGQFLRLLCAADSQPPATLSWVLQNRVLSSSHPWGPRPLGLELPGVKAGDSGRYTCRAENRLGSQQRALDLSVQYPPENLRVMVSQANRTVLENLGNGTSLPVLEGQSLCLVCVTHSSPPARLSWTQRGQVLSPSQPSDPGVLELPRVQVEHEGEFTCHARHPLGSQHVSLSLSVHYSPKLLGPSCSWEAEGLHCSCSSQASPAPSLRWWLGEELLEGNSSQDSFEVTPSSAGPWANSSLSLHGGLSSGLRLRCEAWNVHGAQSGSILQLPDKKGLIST
Assay: Biacore (SPR): CD24Fc immobilised on the chip, Siglec-10Fc injected at different concentrations; steady-state response against concentration with a fitted curve

- Kd: 162 nM
B1: CD24Fc fusion protein (mature human CD24 lacking the final polymorphic amino acid, fused to human IgG1 Fc), processed version (Fc fusion)
chain: SETTTGTSSNSSQSTSNSGLAPNPTNATT[here human IgG1 Fc without letters]
notes: The CD24 part is the truncated 30 residue mature form; also called CD24Ig; CD24IgG1
